{"source": "patent US20240342197A1", "about": "“LIMONENE EFFECTS ON TETRAHYDROCANNABINOL (THC)-INDUCED ANXIETY” (The Johns Hopkins University, priority 2021, published 2024)", "key": {"[1]": {"test_system": "subjective effects of THC", "details": "in vivo; cited from earlier work"}, "[2]": {"test_system": "human subject", "experiment": "Drug Effect Questionnaire VAS subjective ratings after vaporized THC, d-limonene and their combination", "details": "for anxiety: expected; for mean peak subjective ratings (change-from-baseline) for \"anxious\" (VAS) / mean peak subjective ratings (change-from-baseline) for \"paranoid\" (VAS): N=16; for mean peak subjective ratings (change-from-baseline) for \"anxious\" (VAS): FIG. 3; for mean peak subjective ratings (change-from-baseline) for \"paranoid\" (VAS): FIG. 4"}, "[3]": {"test_system": "individuals previously naïve to its effects", "details": "given intravenously or orally; cited from earlier work"}, "[4]": {"test_system": "healthy adult volunteers", "experiment": "Previous studies of the dose effects of cannabis (10 mg and 25 mg THC) given by oral ingestion, smoking or vaporization"}, "[5]": {"test_system": "mice", "details": "suggested by studies of citrus oils in mice; cited from earlier work"}, "[6]": {"details": "inhaled from ambient air; cited from earlier work"}, "[7]": {"test_system": "human subject", "experiment": "Preliminary studies by the inventors, administration of d-limonene", "details": "either 1-mg or 5-mg d-limonene"}, "[8]": {"test_system": "rat brain", "details": "cited from earlier work"}, "[9]": {"details": "10-mg THC dose, oral, smoked and vaporized, infrequent cannabis users"}, "[10]": {"details": "25-mg THC dose, oral, smoked and vaporized, infrequent cannabis users"}, "[11]": {"details": "limonene also administered with THC, versus THC alone"}}}
{"smiles": "C=C(C)[C@@H]1CCC(C)=C[C@H]1c1c(O)cc(CCCCC)cc1O", "note": "[CBD, cannabidiol]", "values": [{"measurement": "modulatory effect on the subjective effects of THC", "setting": "[1]", "value": "failed to detect a modulatory effect"}]}
{"smiles": "CCCCCc1cc(O)c2c(c1)OC(C)(C)[C@@H]1CCC(C)=C[C@@H]21", "note": "[THC, (−)-trans-Δ^9-tetrahydrocannabinol]", "values": [{"measurement": "anxiety", "setting": "[2]; 30-mg THC dose", "value": "anxiety in most study subjects, but not severe anxiety"}, {"measurement": "mean peak subjective ratings (change-from-baseline) for \"anxious\" (VAS)", "setting": "[2]; THC alone", "value": "reliably increased"}, {"measurement": "mean peak subjective ratings (change-from-baseline) for \"paranoid\" (VAS)", "setting": "[2]; THC alone", "value": "reliably increased"}, {"measurement": "anxiety", "setting": "[2]; low THC dose (15 mg)", "value": "low levels of anxiety may be observed"}, {"measurement": "therapeutic index", "setting": "[3]", "value": "narrow"}, {"measurement": "drug effects", "setting": "[4]; 10-mg THC dose, vaporized cannabis", "value": "mild to moderate drug effects"}, {"measurement": "pleasant drug effects", "setting": "[4]; [9]", "value": "increase in pleasant drug effects"}, {"measurement": "unpleasant side effects", "setting": "[4]; [9]", "value": "few unpleasant side effects"}, {"measurement": "anxiety", "setting": "[4]; 25-mg THC dose, vaporized cannabis, FIG. 1", "value": "mild to moderate anxiety in a subset of subjects"}, {"measurement": "ratings of pleasant drug effects", "setting": "[4]; [10]", "value": "no change"}, {"measurement": "unpleasant drug effects, including self-reported ratings of anxiety", "setting": "[4]; [10]", "value": "significantly increased"}, {"measurement": "safety of administration", "setting": "[4]; vaporized cannabis containing THC doses of 10 mg and 25 mg", "value": "could be safely administered"}]}
{"smiles": "C=C(C)[C@H]1CC=C(C)CC1", "note": "[d-limonene]", "values": [{"measurement": "mean peak subjective ratings (change-from-baseline) for \"anxious\" (VAS)", "setting": "[2]; [11]", "value": "reduced in a dose-dependent manner"}, {"measurement": "mean peak subjective ratings (change-from-baseline) for \"paranoid\" (VAS)", "setting": "[2]; [11]", "value": "reduced in a dose-dependent manner"}, {"measurement": "anxiolytic effect", "setting": "[5]", "value": "anxiolytic effects"}, {"measurement": "anxiolytic effect", "setting": "[6]", "value": "anxiolytic effects"}, {"measurement": "depression", "setting": "[6]", "value": "reduce depression"}, {"measurement": "adverse effects", "setting": "[7]", "value": "no adverse effects"}]}
{"smiles": "C=C(C)[C@@H]1CC=C(C(=O)O)CC1", "note": "[perillic acid]", "values": [{"measurement": "stress reduction", "setting": "[8]", "value": "stress reduction effects"}]}
